# Measurements from the supplement of paper PMC8728848.
# The other results are listed elsewhere or left out.
# B1: rCNL (Clitocybe nebularis), B2ZRS9 (protein)
# chain: SITPGTYNITNVAYTNRLIDLTGSNPAENTLIIGHHLNKTPSGYGNQQWTLVQLPHTTIYTMQAVNPQSYVRVRDDNLVDGAALVGSQQPTPVSIESAGNSGQFRIKIPNLGLALTLPSDANSTPIVLGEVDETSTNQLWAFESVSAV
# Columns and labels:
# Assay in all cases: glycan array binding signal (z-score within array); higher = stronger binding
# Settings in all cases: glycan notation: IUPAC condensed, linker removed
# [1] = target: Neu5Ac(a2-6)Gal(b1-4)GlcNAc(b1-3)Gal(b1-3)GlcNAc
# Method in brief: (§1)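 Glycan array data were curated from 3228 arrays in the Consortium for Functional Glycomics database and kept only where the protein sequence was available. Glycan names were converted to IUPAC-condensed notation, and columns mapping to the same glycan were averaged. The binding signal is a within-array Z-score, averaged across arrays of the same protein sequence at different concentrations or buffers and across linkers. Negative Z-scores can be read as non-binding.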
# [2] = target: Neu5Ac(a2-6)Gal(b1-4)GlcNAc(b1-3)Gal(b1-4)GlcNAc
# Method in brief: as §1
# [3] = target: Neu5Ac(a2-6)Gal(b1-4)GlcNAc(b1-3)Gal(b1-4)GlcNAc(b1-2)Man(a1-3)[Neu5Ac(a2-6)Gal(b1-4)GlcNAc(b1-3)Gal(b1-4)GlcNAc(b1-2)Man(a1-6)]GalNAc
# Method in brief: as §1
# [4] = target: Neu5Ac(a2-6)Gal(b1-4)GlcNAc(b1-3)Gal(b1-4)GlcNAc(b1-3)Gal(b1-4)GlcNAc
# Method in brief: as §1
# [5] = target: Neu5Ac(a2-6)Gal(b1-4)GlcNAc(b1-3)Gal(b1-4)GlcNAc(b1-3)Gal(b1-4)GlcNAc(b1-2)Man(a1-3)[Neu5Ac(a2-6)Gal(b1-4)GlcNAc(b1-3)Gal(b1-4)GlcNAc(b1-3)Gal(b1-4)GlcNAc(b1-2)Man(a1-6)]GalNAc
# Method in brief: as §1
# [6] = target: Neu5Ac(a2-6)Gal(b1-4)GlcNAc(b1-3)Gal(b1-4)GlcNAc(b1-3)GalNAc
# Method in brief: as §1
# [7] = target: Neu5Ac(a2-6)Gal(b1-4)GlcNAc(b1-3)Gal(b1-4)GlcNAc(b1-3)[Neu5Ac(a2-6)Gal(b1-4)GlcNAc(b1-3)Gal(b1-4)GlcNAc(b1-6)]GalNAc
# Method in brief: as §1
# [8] = target: Neu5Ac(a2-6)Gal(b1-4)GlcNAc(b1-3)Gal(b1-4)GlcNAc(b1-6)[Gal(b1-3)]GalNAc
# Method in brief: as §1
# [9] = target: Neu5Ac(a2-6)Gal(b1-4)GlcNAc(b1-3)Gal(b1-4)[Fuc(a1-3)]GlcNAc(b1-3)Gal(b1-4)[Fuc(a1-3)]GlcNAc
# Method in brief: as §1
# [10] = target: Neu5Ac(a2-6)Gal(b1-4)GlcNAc(b1-3)GalNAc
# Method in brief: as §1
# [11] = target: Neu5Ac(a2-6)Gal(b1-4)GlcNAc(b1-3)[Neu5Ac(a2-6)Gal(b1-4)GlcNAc(b1-6)]GalNAc
# Method in brief: as §1
# [12] = target: Neu5Ac(a2-6)Gal(b1-4)GlcNAc(b1-6)GalNAc
# Method in brief: as §1
# [13] = target: Neu5Ac(a2-6)Gal(b1-4)GlcNAc(b1-6)[Gal(b1-3)GlcNAc(b1-3)]Gal(b1-4)Glc
# Method in brief: as §1
# [14] = target: Neu5Ac(a2-6)Gal(b1-4)GlcNAc(b1-6)[Gal(b1-3)]GalNAc
# Method in brief: as §1
# [15] = target: Neu5Ac(a2-6)Gal(b1-4)GlcNAc6S
# Method in brief: as §1
# [16] = target: Neu5Ac(a2-6)GalNAc
# Method in brief: as §1
# [17] = target: Neu5Ac(a2-6)GalNAc(b1-4)GlcNAc
# Method in brief: as §1
# [18] = target: Neu5Ac(a2-6)GalNAc(b1-4)GlcNAc6S
# Method in brief: as §1
# [19] = target: Neu5Ac(a2-6)GlcNAc(b1-4)GlcNAc
# Method in brief: as §1
# [20] = target: Neu5Ac(a2-6)GlcNAc(b1-4)GlcNAc(b1-4)GlcNAc
# Method in brief: as §1
# [21] = target: Neu5Ac(a2-8)Neu5Ac
# Method in brief: as §1
# [22] = target: Neu5Ac(a2-8)Neu5Ac(a2-3)Gal(b1-3)GalNAc(b1-4)[Neu5Ac(a2-3)]Gal(b1-4)Glc
# Method in brief: as §1
# [23] = target: Neu5Ac(a2-8)Neu5Ac(a2-3)Gal(b1-3)GalNAc(b1-4)[Neu5Ac(a2-8)Neu5Ac(a2-3)]Gal(b1-4)Glc
# Method in brief: as §1
# [24] = target: Neu5Ac(a2-8)Neu5Ac(a2-3)Gal(b1-4)Glc
# Method in brief: as §1
# [25] = target: Neu5Ac(a2-8)Neu5Ac(a2-3)Gal(b1-4)GlcNAc
# Method in brief: as §1
binder,measurement,setting,value
B1,glycan array binding signal (z-score),[1],-0.257
same,glycan array binding signal (z-score),[2],-0.043
same,glycan array binding signal (z-score),[3],-0.211
same,glycan array binding signal (z-score),[4],-0.014
same,glycan array binding signal (z-score),[5],-0.13
same,glycan array binding signal (z-score),[6],-0.22
same,glycan array binding signal (z-score),[7],0.003
same,glycan array binding signal (z-score),[8],-0.185
same,glycan array binding signal (z-score),[9],-0.274
same,glycan array binding signal (z-score),[10],-0.295
same,glycan array binding signal (z-score),[11],-0.221
same,glycan array binding signal (z-score),[12],-0.214
same,glycan array binding signal (z-score),[13],-0.221
same,glycan array binding signal (z-score),[14],-0.224
same,glycan array binding signal (z-score),[15],-0.244
same,glycan array binding signal (z-score),[16],-0.31
same,glycan array binding signal (z-score),[17],-0.29
same,glycan array binding signal (z-score),[18],-0.189
same,glycan array binding signal (z-score),[19],-0.317
same,glycan array binding signal (z-score),[20],-0.307
same,glycan array binding signal (z-score),[21],-0.306
same,glycan array binding signal (z-score),[22],-0.22
same,glycan array binding signal (z-score),[23],-0.213
same,glycan array binding signal (z-score),[24],-0.315
same,glycan array binding signal (z-score),[25],-0.225
